Data published in patent US7452951B2, “Multifunctional self-decontaminating surface coating” (priority 2004, dated 2008).

test system: Gram-positive and Gram-negative bacteria tested; conditions: activity listed as entry 5>8>7

SMILES | antimicrobial effectiveness
CCCCCCCC[N+](C)(C)CCOC.[Cl-] [Entry 5] | effective
CCCCCCCC[N+](C)(C)CCOCCOCCOC.[Cl-] [Entry 7] | effective
CCCCCCCC[N+](C)(C)CCOCCOCCOCCOC.[Cl-] [Entry 8] | effective
